Drawing on patent US20230174595A1 (UNIVERSITY OF LOUISVILLE RESEARCH FOUNDATION, published 2023), this text covers Kd for one molecule.

This assay concerns the target T1, recombinant His-tagged HIV-1 gp120 ZM53M.PB12 (Clade C) (HIV-1 strain ZM53M.PB12).
T1 construct: domain: gp120
Put plainly: SPR (Biacore X100), His-tagged gp120 captured on NTA chip, steady state. A general note: Surface plasmon resonance follows binding to a sensor surface in real time, without labels.

B1: AvFc lectibody (Avaren fused via a linker to the Fc region of human IgG1) (Fc fusion)
chain: ASGTIRNAETGRCLDSNYNGNVYTLPCNGGNYQRWTGPGDGTVRNAETGRCLDSNYDGAVYTLPCNGGSYQKWTGPGDGTIQNAETGRCLDSNYNGNVYTLPCNGGNYQKWTGGGGSV[human IgG1 Fc left out here]
Consider B1, for which the Kd (commonly the concentration at which binding is half-saturated) amounted to 4.4 nM.
